Data published in the supplement of paper PMC9446081.
In all, about 39,000 compounds went through this assay and about 220 (0.56%) showed activity. The list shows a part of the results.

System: Escherichia coli K-12 BW25113
Assay: relative growth (OD600 normalised to plate interquartile mean) (fraction); higher = less growth inhibition, active = 0.2 or less
Settings: 50 µM; LB; incubation time: overnight (16-24 h)
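Note: static incubation at 37 °C against the wild-type strain, values averaged over two biological replicates.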

Row | Structure (SMILES) | relative growth
1 | O=C(C[C@H]1CC[C@H]2[C@@H](COC[C@@H](O)CN2S(=O)(=O)c2ccccc2)O1)NCCN1CCCC1 | inactive: 1.02
2 | C[C@@H]1CCCCO[C@@H](CN(C)C(=O)C2CCCCC2)[C@@H](C)CN([C@@H](C)CO)C(=O)c2cc(NC(=O)c3ccncc3)ccc2O1 | inactive: 1.01
3 | COc1ccc(S(=O)(=O)Nc2ccc3c(c2)C(=O)N([C@@H](C)CO)C[C@@H](C)[C@H](CN(C)S(=O)(=O)c2ccc(C)cc2)O3)cc1 | inactive: 1.01
4 | Cc1noc(C)c1S(=O)(=O)Nc1ccc2c(c1)CC(=O)N([C@@H](C)CO)C[C@H](C)[C@@H](CN(C)CC1CC1)O2 | inactive: 1.02
5 | O=C(C[C@@H]1CC[C@H]2[C@@H](COC[C@@H](O)CN2S(=O)(=O)c2ccccc2)O1)NCCN1CCCC1 | inactive: 0.972
6 | O=C(c1ccccc1Cl)n1c2ccccc2c2ccccc21 | inactive: 1.02
7 | NCCCCNCCCN | inactive: 0.98
8 | Cc1noc(C)c1S(=O)(=O)Nc1ccc2c(c1)C(=O)N([C@@H](C)CO)C[C@H](C)[C@H](CN(C)Cc1ccncc1)O2 | inactive: 0.982
9 | C[C@H](CO)N1C[C@H](C)[C@H](CN(C)CC2CCCCC2)Oc2c(NC(=O)c3nc4ccccc4s3)cccc2C1=O | inactive: 1.01
10 | CC(C)N(CCOc1c(Br)cc(/C=C/C(=O)NCCCOc2c(Br)cc(CCN(C)C)cc2Br)cc1Br)C(C)C | inactive: 0.882
11 | Cc1noc(C)c1NC(=O)Nc1cccc2c1O[C@H](CN(C)S(C)(=O)=O)[C@@H](C)CN([C@H](C)CO)C2=O | inactive: 0.981
12 | C[C@@H]1CN([C@H](C)CO)C(=O)c2cc(NC(=O)Nc3ccc(F)cc3)ccc2O[C@@H](C)CCCCO[C@@H]1CN(C)Cc1ccc(C(=O)O)cc1 | inactive: 0.995
13 | C[C@@H]1CN([C@H](C)CO)C(=O)c2cc(NC(=O)C3CCCCC3)ccc2O[C@@H]1CN(C)C(=O)Nc1ccc(C(F)(F)F)cc1 | inactive: 0.989
14 | C[C@H]1CN([C@@H](C)CO)C(=O)CCCn2cc(nn2)CO[C@@H]1CN(C)C(=O)CCCN(C)C | inactive: 0.981
15 | COc1ccc(S(=O)(=O)N2C[C@H](O)COC[C@H]3O[C@@H](CC(=O)NCCCN(C)C)CC[C@@H]32)cc1 | inactive: 0.969
16 | C[C@@H]1CCCCO[C@H](CN(C)Cc2ccc(C(=O)O)cc2)[C@H](C)CN([C@@H](C)CO)C(=O)c2cc(NS(=O)(=O)c3ccc(Cl)cc3)ccc2O1 | inactive: 1.01
17 | C[C@@H]1CN([C@H](C)CO)C(=O)Cc2cc(NC(=O)Cn3cnnn3)ccc2O[C@@H]1CN(C)S(=O)(=O)c1ccc(F)cc1 | inactive: 0.981
18 | C[C@@H]1CN([C@@H](C)CO)C(=O)Cc2cc(NS(=O)(=O)c3cn(C)cn3)ccc2O[C@@H]1CN(C)S(=O)(=O)c1ccc(F)cc1 | inactive: 0.99

Row | Structure (SMILES) | relative growth
19 | C[C@H](NC(=O)C[C@H]1CC[C@@H](NC(=O)CN2CCOCC2)[C@@H](CO)O1)c1ccccc1 | inactive: 1.02
20 | C[C@H]1CN([C@@H](C)CO)C(=O)c2cc(NS(C)(=O)=O)ccc2O[C@@H]1CN(C)C(=O)Nc1ccccc1 | inactive: 1.02
21 | C[C@H](CO)N1C[C@H](C)[C@@H](CN(C)S(=O)(=O)c2cn(C)cn2)Oc2c(NC(=O)c3nc4ccccc4s3)cccc2C1=O | inactive: 1
22 | COc1ccc(CN(C)C[C@H]2Oc3ccc(NC(=O)Nc4ccc(C(F)(F)F)cc4)cc3C(=O)N([C@H](C)CO)C[C@H]2C)cc1 | inactive: 0.987
23 | COCC#Cc1cnc2c(c1)C(=O)N([C@@H](C)CO)C[C@@H](C)[C@@H](CN(C)S(=O)(=O)c1cn(C)cn1)O2 | inactive: 1.01
24 | C[C@@H]1CCCCO[C@H](CN(C)Cc2ccccc2)[C@@H](C)CN([C@@H](C)CO)C(=O)c2cc(NS(=O)(=O)c3ccccc3)ccc2O1 | inactive: 1.01
25 | CN1C(=O)c2cc(NC(=O)C3CCOCC3)ccc2OC[C@H]2O[C@H](CC(=O)NCCc3ccncc3)CC[C@H]21 | inactive: 1.01
26 | Cc1ccc(NC(=O)C[C@@H](N)C(=O)O)cc1 | inactive: 1.01
27 | C=CCNC(=O)[C@@H]1[C@H]2C(=O)O[C@H](c3ccccc3)[C@H](c3ccccc3)N2[C@H](c2ccc(OCCO)cc2)[C@@]12C(=O)Nc1ccc(C#CC3(O)CCCCCC3)cc12 | inactive: 1.07
28 | C[C@@H]1CN([C@H](C)CO)C(=O)c2cc(NS(=O)(=O)c3ccc(Cl)cc3)ccc2O[C@@H]1CN(C)Cc1ccc(-c2ccccc2)cc1 | inactive: 1.03
29 | C[C@@H]1CCCCO[C@@H](CN(C)C(=O)c2ccccc2)[C@@H](C)CN([C@@H](C)CO)C(=O)c2cc(NC(=O)Nc3ccc(F)cc3)ccc2O1 | inactive: 1.03
30 | CCCN(C)C[C@@H]1OCCCC[C@H](C)Oc2ccc(NC(=O)CCC(F)(F)F)cc2C(=O)N([C@@H](C)CO)C[C@@H]1C | inactive: 1
31 | C[C@H]1CN([C@@H](C)CO)C(=O)Cc2cc(NS(=O)(=O)c3cn(C)cn3)ccc2O[C@H]1CN(C)CC1CCCCC1 | inactive: 1.02
32 | COc1cccc(S(=O)(=O)N(C)C[C@@H]2OCc3cnnn3CCCC(=O)N([C@H](C)CO)C[C@@H]2C)c1 | inactive: 0.999
33 | Cc1ccc(Cn2nnc3c(=O)n(CC(N)=O)cnc32)cc1 | inactive: 0.987
34 | COc1ccc(-c2cc(=O)c3c(O)cc(O[C@@H]4O[C@H](CO)[C@@H](O)[C@H](O)[C@H]4O[C@@H]4O[C@H](COC(C)=O)[C@@H](O)[C@@H](O)[C@H]4O)c(O)c3o2)cc1 | inactive: 0.993
35 | COc1cc(CO)c(CC(=O)NN)cc1OC | inactive: 0.999
36 | CC(C)C[C@H](NC(=O)[C@H](CCCCN)NC(=O)CNC(=O)[C@H](CC(C)C)NC(=O)[C@@H](NC(=O)[C@@H]1CSSC[C@H](N)C(=O)N[C@@H](CO)C(=O)N[C@@H](CC(N)=O)C(=O)N[C@@H](CC(C)C)C(=O)N[C@@H](CO)C(=O)N[C@@H]([C@@H](C)O)C(=O)N1)C(C)C)C(=O)N[C@@H](CO)C(=O)N[C@@H](CCC(N)=O)C(=O)N[C@@H](CCC(=O)O)C(=O)N[C@@H](CC(C)C)C(=O)N[C@@H](Cc1c[nH]cn1)C(=O)N[C@@H](CCCCN)C(=O)N[C@@H](CC(C)C)C(=O)N[C@@H](CCC(N)=O)C(=O)N[C@H](C(=O)N[C@@H](Cc1ccc(O)cc1)C(=O)N1CCC[C@H]1C(=O)N[C@@H](CCCNC(=N)N)C(=O)N[C@H](C(=O)N[C@@H](CC(=O)O)C(=O)N[C@H](C(=O)NCC(=O)N[C@@H](C)C(=O)NCC(=O)N[C@H](C(=O)N1CCC[C@H]1C(N)=O)[C@@H](C)O)C(C)C)[C@@H](C)O)[C@@H](C)O | inactive: 0.916
